# Results as given in the RNAGym collection of RNA variant scans (doi:10.1073/pnas.2313332121).
# Variants at the floor of the assay are shown more often than the library holds them.
# B1: TPR 5TU (parent)
# chain: GGAUCUUCUCGAUCUAACAAAAAAGACAAAUCUGCCACAAAGCUUGAGAGCAUCUUCGGAUGCAGAGGCGGCAGCCUUCGGUGGCGCGAUAGCGCCAACGUUCUCAACUAUGACACGCAAAACGCGUGCUCCGUUGAAUGGAGUUUAUCAUG
# Variants of: B1
# Assay: polymerase ribozyme fitness, log enrichment relative to wild type (log ratio); higher = more active; in vitro selection for triplet polymerase activity
# How it was run: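 Mutant libraries of each subunit of a heterodimeric triplet polymerase ribozyme were built by PCR and transcribed. Each library went through one round of in vitro selection in triplicate: annealing with biotinylated primer, partner subunit and triplets, frozen incubation at −7 °C, gel excision of extended constructs, streptavidin-bead capture and RT-PCR. Input and output libraries were Illumina-sequenced; only genotypes with ≥10 input reads and ≥1 read per output were kept. Fitness is log2(genotype enrichment/wild-type enrichment), using inverse-variance-weighted replicate averages.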
row,Variant,polymerase ribozyme fitness (log ratio)
1,A3C A19U U55C U56G C85G C108A C125A,≤ -4.2
2,A3U U7G A66C G68A A97U A107C,≤ -4.2
3,A3G C8A A17G C32G A41C A120C C125G A142C,≤ -4.2
4,A3U G42C C43G G88U C123A,≤ -4.2
5,A3U C27G C38U G48U G58U C79G G92A C105U G117U G143U,≤ -4.2
6,A3U A21U C35U A52G G80C G128A,≤ -4.2
7,U4A G58U C87U U90G U127A U148G,≤ -4.2
8,A3U G92A A113G G133U A142U U146G,≤ -4.2
9,A3G G67U A89C C96G A106C A119C,≤ -4.2
10,A3U C36U U55G G59A C93U A106U U151A,≤ -4.2
11,A3G C14G A16C U82C C129G C131A,≤ -4.2
12,A3U C105G,-1.75
13,A3U C18U A19G A89C C99A C108G A115G,≤ -4.2
14,A3U A20C A40C G46U A52G U56A C93U A113G,≤ -4.2
15,A3U U13G U56A U82A C87A,≤ -4.2
16,A3U C93U C118U,-1.3
17,A3U U9C G42A G86A C105G A138U,≤ -4.2
18,A3C G48A C54U C57A C76U A98G C99G C131G A138C,≤ -4.2
19,A3G A17U A47U U55G,-0.403
20,A3C U61A G84A G92A A120C,≤ -4.2
21,A3C A17U C36U C38U G86C A106C A120G G126U,≤ -4.2

row,Variant,polymerase ribozyme fitness (log ratio)
1,A3G U9G A20G G81A G83C C125A U144C U145C,≤ -4.2
2,A3U G68C C72U U109G A120G,≤ -4.2
3,A3C C18G C93A U130A,≤ -4.2
4,U4A C54G U55A C96A C123U U144C U148G,≤ -4.2
5,U4A A26U A39U C54G G81C G84U A97U C118U U148G,≤ -4.2
6,U4A A23U C27G G58C C63U G68C C87U,≤ -4.2
7,A3U C79G G83C U127A C149A,≤ -4.2
8,A3G C51A,-1.26
9,A3U A22G A39C G83A C114U A115C G140C,≤ -4.2
10,A3U C14G A20G A40C U55A C63G G67C G83A A106C,≤ -4.2
11,A3U A52U C57G G68A G88A A107G A115G A119G C125A,≤ -4.2
12,U4A A22G G58C A64U G68C A73G C85A C87U G126C,≤ -4.2
13,A3U U56A A73U C99U A107G A113G G117A C131U G133A U135G,≤ -4.2
14,A3C A19G U61A U77G C85U C125A,≤ -4.2
15,A3C G34C G48C A106U A138G A150G,≤ -4.2
16,A3U A12U A21G C27G G50C A66C A121U,≤ -4.2
17,A3C U77A G80C U90G C105U U111C,≤ -4.2
18,U4A A23U A24U G50A C96U U104G U145C,≤ -4.2
19,A3U A21G C51U U56A A91C G94A U104G A115G U135A,≤ -4.2
20,U4A C87A,≤ -4.2
21,A3C U4G A16G U33G C43U G92U A106G,≤ -4.2

row,Variant,polymerase ribozyme fitness (log ratio)
1,A3U A20U C32U A49C G59C C69A A91C U139A A147C,≤ -4.2
2,A3G U4A C36A A39U A49C G84A G94A,≤ -4.2
3,A3U A24C U31G A40U G50C C69G A97U G124A G143A,≤ -4.2
4,A3U A19C C96G C108G G141C,≤ -4.2
5,A3G A24C U53A U61A C85G,≤ -4.2
6,A3C A40U U56A A60G C96G G140U,≤ -4.2
7,A3U A37C G80A C87G A98U A107C,≤ -4.2
8,A3U A19C G50A C93A C114G G124U U134A,≤ -4.2
9,A3U C85U A107G C118G,≤ -4.2
10,A3C C54G C76A,≤ -4.2
11,U4A C79U G83A A107G A110G U144G,≤ -4.2
12,A3G C36A U61G A120G,≤ -4.2
13,U4A A21G U55G U101G G152A,≤ -4.2
14,A3U G34A G71U A73G C79G C85G C87A G88U G92U A115G,≤ -4.2
15,A3U A40G C54U C95A C149G,≤ -4.2
16,A3C U9C C35G A52G U53A C75U A91U C114A,≤ -4.2
17,A3G A12C C76G C93A C96A G136C,≤ -4.2
18,A3U A37C A52C A73G A89G C95A U111A C129A U134G,≤ -4.2
19,A3G A30C C95U C105U,≤ -4.2
20,A3U A20G U45G C85G,≤ -4.2
21,U4A C27U G83C G117A A122G U146A,-3.14

row,Variant,polymerase ribozyme fitness (log ratio)
1,A3U C57U C87U A113C A119G,-3.73
2,A3U A23G A66G C93U C103U A119G G141C,≤ -4.2
3,A3G A26U C27U A28U G88A C129G U144C,≤ -4.2
4,A3U A39G A52G U144C,-3.97
5,A3C U13A U55A A89C C108G C118U,≤ -4.2
6,U4A C36U C75A U82C C95U U135C,≤ -4.2
7,U4A A22U A40G U145A,-3.05
8,A3U U55A G80C C87A U134G,≤ -4.2
9,A3U G34A C75U G86U,≤ -4.2
10,A3C A26G G48C U111C U139A U146C,≤ -4.2
11,A3C C5G C36A U61C C75G C87U C118U,≤ -4.2
12,A3G A17C A49C C51U C76A G81A G92A A113C C118G G140C G141U,≤ -4.2
13,A3C A41G U44A C51U C87U A106U A107G,≤ -4.2
14,U4A A30C U53A U56A C95U G100U C125A,≤ -4.2
15,U4A A22C G48U C75G G84A,≤ -4.2
16,A3U U6G A22U G25A C38U C76A C85U C116A,≤ -4.2
17,A3U U55A C87U A91C,≤ -4.2
18,A3G C35G G83U C87U,≤ -4.2
19,U4A C8U A16U A40C U53A C57U C87A A97U U145G,≤ -4.2
20,A3G U44A G80C U82C G88A G92A,≤ -4.2
